# The supplement of paper PMC11417369
# ± gives the standard deviation of the averaged measurements. The list shows a part of the results.
# Test system: PfAP2-G AP2 domain (GST-tagged)
# Experiment: gcPBM binding intensity (ln(normalized median fluorescence intensity)); higher = stronger DNA binding
# Method in brief: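 GST-fused DNA-binding domains of P. falciparum, expressed in E. coli, were applied at about 25 μg on average for 1 h to an Agilent 4 × 180k array of primer-extended double-stranded 36-bp intergenic genomic probes and negative controls. Binding intensity is the highest Masliner-normalised natural-log median intensity across replicate spots of either probe orientation, measured with Alexa488 anti-GST antibody and a 488 nm scan.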
row,Sequence,gcPBM binding intensity (ln)
1,TTTACACGTACGTGTACACACAAAAATATGTTTTTA [CACACA_site995],11.6 ± 0.89
2,GAAAGAAATAAAGGTGGTACATAAATAAAAACTAAG [XGTACX_site4826],11.5 ± 0.77
3,AAATTCCACGGACACACACACATATAAATAAATAAA [CACACA_site4811],11.2 ± 0.86
4,TGTAGTCTGGAGAAAAGTACATAGTATCTGGTAGCT [XGTACX_site2031],11.3 ± 0.81
5,ATTTATATGGTTTGCACACATAACAACTATGGTTAT [CACACA_site3632],10.21 ± 0.042
6,AAAAAAAAAAAAAAAAGTACACAAATAGATTTATAT [XGTACX_site3727],11.6 ± 0.88
7,ATTCTATTTTTTATAAAACCATGTCATCAACATAGG [CACACA_negctrl_site237],10.2 ± 0.15
8,AAAAAAAAAGAAAAATGTACATACATAAATATATAT [XGTACX_site5664],11.1 ± 0.64
9,ATTATAAACCATAATTAACACACAAAATAAGTTACA [CACACA_site9057],10.2 ± 0.17
10,TATTTTAGTAAAGGTGGTACTTTTAAGTTCATGTAT [XGTACX_site1854],11.2 ± 0.74
11,TCCTTTCAACCATATATAATGACATGTACTCAAAAA [GTGCAC_negctrl_site417],11.5 ± 0.99
12,CATCCATATAAAATATGTACATATATATATATATAT [XGTACX_site5859],11.2 ± 0.73
13,TATATATCAAGACACACACACATATATTTATTTATA [CACACA_site7733],10.05 ± 0.035
14,GATAATTTATTTTTTCGTACACAAAATATAATATAT [XGTACX_site1470],11.3 ± 0.91
15,TGAGTTCAACAAAGACGTACAAAACCAAAAATATAA [XGTACX_site8931],11.6 ± 0.93
16,TTTTTTTTTTTTTTTTGATACATTAACCTACAATGG [GTGCAC_negctrl_site625],9.87 ± 0.41
17,TCGTGAGAAAATATTACACACATTTACTATAGTATC [CACACA_site3444],9.76 ± 0.16
18,TTTTTTAAAGATTACTCAAAAAAATAAAAAAATAAA [GTGCAC_negctrl_site222],9.93 ± 0.16
19,AAAATTTATAAAAGCACACAAAATAAAAAAAAATGA [CACACA_site1491],10.06 ± 0.078

row,Sequence,gcPBM binding intensity (ln)
1,TGTACGAGTCGTAGAGTGCAGTCTGGAGAAGAGTAC [GTGCAC_site9684],11 ± 0.52
2,CAATGTTAACATATTACACACATATGTATATAGAAT [CACACA_site2732],10.24 ± 0.049
3,CTTACGTATTAAGTGTGTCCGTAGTGTTCATAGTTC [XGTACX_site8913],10.9 ± 0.47
4,TTATAATATGTATACACACACATATATAAATATATA [CACACA_site2326],10 ± 0.22
5,TTTTGTTATATACAATAGATCAGAAGAAATGAAGTT [CACACA_negctrl_site1579],10.04 ± 0.064
6,ATATTGGAATAAATTTGTACATATATATATTATTCA [XGTACX_site916],10.9 ± 0.54
7,TATATATGTATATATTTTATAAGTATGCAAGAAAAT [TGCATGCA_negctrl_site486],10.1 ± 0.2
8,ATATATATATGTATATGTACTTATATTATTGTTTGT [XGTACX_site1466],11.2 ± 0.75
9,CTATAATTATGATGAAGTACATATGAGTTCAAAAAA [XGTACX_site3070],11.3 ± 0.87
10,AATATATGGTTTCATGATATTAAATACAATTTAATG [CACACA_negctrl_site1503],10 ± 0.15
11,TTATTATTATATTCTACATGCAGTTTGTGTAGAACA [TGCATGCA_site455],9.94 ± 0.057
12,TGAACTCAACAAAGGGTGCATAACAAAAATAGACGT,10.6 ± 0.34
13,GTAAAAGAACGGCATGCATGAAAAATATTACACATG [TGCATGCA_site143],10 ± 0.085
14,ACATAATGCTAGACACGTACGTACATCCGTGAGGTT [XGTACX_site4156],11.6 ± 0.67
15,AAAAATATAAACACCAGTACACAAACCTATAATGGA [XGTACX_site3846],11.2 ± 0.61
16,TTTCAATAATAAAAAACACACACAAAAAAAAATAAT [CACACA_site8905],10.21 ± 0.049
17,AAAGTAAATTTAAGCACACACAACGAATTTTTATAC [CACACA_site1959],10.2 ± 0.035
18,GCATATAAAATAAATCGTACATGTAAAACATAATTA [XGTACX_site7077],11 ± 0.69
19,TTTCTTTTTTCTGTTATTATTATAAAACGATATTTA [TGCATGCA_negctrl_site167],9.76 ± 0.042

row,Sequence,gcPBM binding intensity (ln)
1,TACACATACCCATACACACGCATAGAAACATACGAA [CACACA_site5212],10.3 ± 0.35
2,TATTTTTATTTTAATTGTACTTTTTAATTAATAATA [XGTACX_site8302],11.4 ± 0.93
3,GATAGAAAAAAATAATGTACACACACATATATGTTT [XGTACX_site392],11.2 ± 0.71
4,GGCAGCAATTTAGTTACACACATATATAGGTATACA [CACACA_site76],10.1 ± 0.099
5,TGTGTCAAATAATTAATGTCATATATATTTTGTATA [CACACA_negctrl_site1479],9.675 ± 0.078
6,TGCTTATATCTTATAATATTTATACATCATAATAAG [CACACA_negctrl_site629],9.7 ± 0.11
7,ACAAAATAAACGGCTGCACACAAGAAGCACAATATT [CACACA_site3690],10.19 ± 0.064
8,TTTTTTTTTTTTATATGTACTAATAATCTTTTTTTT [XGTACX_site3552],11 ± 0.93
9,GCTGAAAGGATAAAGGTGCATATTTTTTAAAAAATT [GTGCAC_site9487],10.1 ± 0.24
10,AATATTTTATATGTAGTGCATTACTATAGGATTTAT [GTGCAC_site9424],10.3 ± 0.3
11,ACAATAATTTCCATCACACATATATTTATATATTAC [CACACA_site6003],10.05 ± 0.078
12,TTGCATCTACATTTATGTACATATCTTATGATAAAT [XGTACX_site2146],11.1 ± 0.61
13,TAACTGATATATAAAACACACATCATAAAAATATAA [CACACA_site6499],9.835 ± 0.064
14,ATACATATTCTTATTTGTACTTATTATAAAATGGTC [XGTACX_site6584],11.2 ± 0.83
15,TCAAAATGTTACAAATTATGTTGGCTAAAATTTTAA [TGCATGCA_negctrl_site188],10 ± 0.18
16,TTGAACCTGATAAATACACACAATATAGATTTTTTT [CACACA_site7091],9.88 ± 0.057
17,AATTATACTCACGTTACACACACACTATATATATAT [CACACA_site9375],10.29 ± 0.092
18,TATAATATAATATTTTGTACATATGATAAAAAAAAA [XGTACX_site6858],10.8 ± 0.67
